First the molecules themselves.
B1: TPR 5TU (parent)
chain: GGAUCUUCUCGAUCUAACAAAAAAGACAAAUCUGCCACAAAGCUUGAGAGCAUCUUCGGAUGCAGAGGCGGCAGCCUUCGGUGGCGCGAUAGCGCCAACGUUCUCAACUAUGACACGCAAAACGCGUGCUCCGUUGAAUGGAGUUUAUCAUG

Variants at the background level are over-represented here. A value given as a limit tells only on which side of the number the result lay.

This data set covers variants of B1. The data set is described as follows: polymerase ribozyme fitness, log enrichment relative to wild type (log ratio); higher = more active; in vitro selection for triplet polymerase activity. A digest of the protocol:
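Frozen incubation at −7 °C formed the core of a single, triplicate in vitro selection round applied to PCR-built, transcribed mutant libraries of each subunit of a heterodimeric triplet polymerase ribozyme. Extended constructs were gel-excised, captured with streptavidin beads and amplified by RT-PCR, and input and output libraries were Illumina-sequenced with a filter of ≥10 input reads and ≥1 read per output. Fitness is the logarithm of genotype enrichment relative to wild-type enrichment, with inverse-variance-weighted replicate averaging, and the logarithm is base 2.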
With GGAUCUUCUCGAUCUAACAAAAAAGACAAAUCUGCCACAAAGCUUGAGAGCAUCUACGGAUGCACAGGCGGCAGCCUUCGGUGGCGCGAUCGCGCCAACGUUAUCAACUAUGACACGCAAAACGCGUGCUCCUUUGAAUGGAGUUUAUCAUG, the “polymerase ribozyme fitness (log ratio)” value is ≤ -4.2.

With GGAUCUUCUCGAUCUAACAAAAAAGACAAAUCUGCCACAAAGCUUGAGAGCAUCUACGGAUGCAGAGGCGGCAGCCUUCGGUUGCGCGAUAGCGCCAACGUUCUCAACUAUGACACGCAAAACGCGUGCUCCGUUGAAUGGAGUUUAUAAUG, the “polymerase ribozyme fitness (log ratio)” value is ≤ -4.2.

Regarding GGAUCUUCUCGAUCUAACAAAAAAGACAAAUCUGCCACAAAGCUUGAGAGCAUCUACGGAUGCAGAGGCGGCAGCCAUCGGUGGCGCGAUAGCGCCAACGUUCUCAACUAUGACACGCAAAACGUGUGCUCCGUUGAAUGGAGUUUCUCAUG, the “polymerase ribozyme fitness (log ratio)” value was ≤ -4.2.

On to GGAUCUUCUCGAUCUAACAAAAAAGACAAAUCUGCCACAAAGCUUGAGAGCAUCUACGGAUGCAGAGGCGGCAGCCUUCGGUGGCGCGAGAGCGCCAACGUUCUCAACUAUGACACGCAAAACGCGUGCUCCGUUGAAUGAAGUUUAUCGUG, for which the “polymerase ribozyme fitness (log ratio)” value was ≤ -4.2.

On to GGAUCUUCUCGAUCUAACAAAAAAGACAAAUCUGCCACAAAGCUUGAGAGCAUCUACGGAUGCAGAGGCGGCAGCCUUCGGUGGCGCGAUAGCGCUAAAGUUCUCACCUAUGACACGCAAAACGCGUGCUCCGUUGAAUGGAGUUUAUCAUG, for which the “polymerase ribozyme fitness (log ratio)” value was ≤ -4.2.

With GGAUCUUCUCGAUCUAACAAAAAAGACAAAUCUGCCACAAAGCUUGAGAGCAUCUACGGAUGCAGAGGCGGCAGCCUUCGGUGGCGCGAUAGUGCCAACGUUCUCAACUAUGACAUGCAAAACGCGUGCUCCGUUGAAUGGAGUUUAUCAUG, the “polymerase ribozyme fitness (log ratio)” value is -1.11.

Take GGAUCUUCUCGAUCUAACAAAAAAGACAAAUCUGCCACAAAGCUUGAGAGCAUCUACGAAUGCAGAGGCGGCAGCCUUCGGUGGCGCGAUAGCGCUAACGUUCUCAACUAUGACACGCAAAACGCGUGCUCCGUUGAAUGGAGUUUAUCAUG: the “polymerase ribozyme fitness (log ratio)” value worked out at 0.392.

On to GGAUCUUCUCGAUCUAACAAAAAAGACAAAUCUGCCACAAAGCUUGAGAGCAUCUACGGAUGCAGAGGCGGCAGCCUUCGGCGGCGCGAUAGUGCCAACGUUCUCAACUAUGACACGCAAAACGCGUGCUCCGUUGAAUGGAGUUUAUCAUG, for which the “polymerase ribozyme fitness (log ratio)” value is -1.41.

For GGAUCUUCUCGAUCUAACAAAAAAGACAAAUCUGCCACAAAGCUUGAGAGCAUCUACGGAUGCAGAGGCGGCAGCCUUCGGUGGCGCGAUAGCGCCAACGAUCUCAACUAUGACACGCAAAACGCGUGCUCCGUUGAAUGGAGUUUAUCAUG, the “polymerase ribozyme fitness (log ratio)” value is -0.244.

For GGAUCUUCUCGAUCUAACAAAAAAGACAAAUCUGCCACAAAGCUUGAGAGCAUCUACAGAUGCAGAGGCGGUAGCCUUCGGUGGCGUGAUAGCGCCAACGUUCUCAACGAUGACACGCAAAACGCGUGCUCCGUUAAAUGGAGCUUAUCAUG, the “polymerase ribozyme fitness (log ratio)” value was -4.13.

On to GGAUCUUCUCGAUCUAACAAAAAAGACAAAUCUGCCACAAAGCUUGAGAGCAUCUACGGAGGCAGAGGCGGCAGCCUUCGGUGGCGCGAUCGCGCCAACGUUCUCAACUAUGACACGCAAAACGCGCGCUCCGUUGAAUGGAGUUUACCUUG, for which the “polymerase ribozyme fitness (log ratio)” value was ≤ -4.2.

Regarding GGAUCUUCUCGAUCUAACAAAAAAGACAAAUCUGCCACAAAGCUUGAGAGCAUCUACGGAUGCAGAGGCGGCAGCCUUCGGUGGCGCGAUAGCGCCAACGUUCUCAACUAUGACACGCAAAACGCGUGCACCGUUGAAUGGAGUUUCUCAUG, the “polymerase ribozyme fitness (log ratio)” value is -3.18.

GGAUCUUCUCGAUCUAACAAAAAAGACAAAUCUGCCACAAAGCUUGAGAGCAUCUACGGAUGCAGAGGCGGCAGCCUUCGGUGGCGCGAUAGCGCCAAUGUUCUCAACUAUGACACGCAAAACGCGUGCUCCGGUGAAUGGAGUUUAUAAUG: the “polymerase ribozyme fitness (log ratio)” value was ≤ -4.2.

For GGAUCUUCUCGAUCUAACAAAAAAGACAAAUCUGCCACAAAGCUUGAGAGCAUCUACGGAUGCAGAGGCGUCAGCCUUCGGUGGCGCGAUAGGGCCAACGUUCUCAACUAUGACACGCUAAUCGCGUGCUCCGUUGAAUGGAGUUUAUCAUG, the “polymerase ribozyme fitness (log ratio)” value is ≤ -4.2.

Regarding GGAUCUUCUCGAUCUAACAAAAAAGACAAAUCUGCCACAAAGCUUGAGAGCAUCUACGGAUGCAGAGGCGGCAGCCUUCGGUAGCGCGAUAGCGCCAACGUUCUCAACUUUGACAGGCAAAACGCGUGCUCCGUUGAAUGGAGUUUAUCAUG, the “polymerase ribozyme fitness (log ratio)” value is ≤ -4.2.

On to GGAUCUUCUCGAUCUAACAAAAAAGACAAAUCUGCCACAAAGCUUGAGAGCAUCUACGGAUGCAGAGGCCGCAGCCUUCGGUGGCGCGAGAGCGGCAACGUUCUCAACUAUGACACGCAAAACGCGUGCUCCUUUGAAUUGAGUUUAUCAUG, for which the “polymerase ribozyme fitness (log ratio)” value is ≤ -4.2.

GGAUCUUCUCGAUCUAACAAAAAAGACAAAUCUGCCACAAAGCUUGAGAGCAUCUACGGAUGCAGAGGCGGCAGCCUUCGGUGGCGCGAUAGAGCCAACGUGCUCAACUAUGACACGUAAAACGCGUGCUCCGUUGAAUGGAGUUUAUCAUG: the “polymerase ribozyme fitness (log ratio)” value was ≤ -4.2.

Consider GGAUCUUCUCGAUCUAACAAAAAAGACAAAUCUGCCACAAAGCUUGAGAGCAUCUACGGAUGCAGAGGCGGCAGCCUUCGGUCGCGCGAUAGCGCCAACUUUCUCAACUAUGACACGCAAAACGCGUGCUCCGUUGAAUGGAGUUUAUCAUG, for which the “polymerase ribozyme fitness (log ratio)” value is ≤ -4.2.

Regarding GGAUCUUCUCGAUCUAACAAAAAAGACAAAUCUGCCACAAAGCUUGAGAGCAUCUACGGAUGCAGAGGCGGCAGCCUUCGGUGGCGCCAUAGCGUCAACGUUCUCAACUAUGACACGCAAAACGCGUGCUCCGUUGAAUGGAGUUUAUCAUG, the “polymerase ribozyme fitness (log ratio)” value was ≤ -4.2.

The values above are taken from the RNAGym collection of RNA variant scans (doi:10.1073/pnas.2313332121).
